This passage reports relative growth results from the supplement of paper PMC9446081.

Among all 39,000 compounds or so, about 220 (0.56%) showed activity. This is one part of the list.
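Also: static incubation at 37 °C against the wild-type strain, values averaged over two biological replicates.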

The test system of this test is Escherichia coli K-12 BW25113. Put plainly: relative growth (OD600 normalised to plate interquartile mean) (fraction); higher = less growth inhibition, active = 0.2 or less. Conditions: 50 µM; LB; incubation time: overnight (16-24 h).
Turning to `OC[C@H]1O[C@@H](OCc2ccccc2)[C@H](O)[C@@H](O)[C@@H]1O`, the relative growth was inactive: 1.01.

In the case of `C[C@H](CO)N1C[C@H](C)[C@H](CN(C)S(C)(=O)=O)Oc2ncc(C#CC(C)(C)O)cc2C1=O`, the relative growth was inactive: 0.999.

For `C[C@H]1CN([C@@H](C)CO)C(=O)c2cc(NS(=O)(=O)c3ccc(F)cc3)ccc2O[C@H]1CN(C)Cc1ccc(-c2ccccc2)cc1`, the relative growth is inactive: 0.98.

As to `C#CCCC(=O)NO`, the relative growth is inactive: 0.982.

`C[C@H](CO)N1C[C@H](C)[C@@H](CN(C)Cc2ccc(-c3ccccc3)cc2)Oc2c(NS(=O)(=O)c3ccc(F)cc3)cccc2C1=O`: the relative growth is inactive: 1.01.

As for `N=C(N=C(N)N)Nc1cccc(Cl)c1`, the relative growth was inactive: 1.01.

Consider `COc1ccccc1C#Cc1cnc2c(c1)C(=O)N([C@@H](C)CO)C[C@H](C)[C@H](CN(C)C(=O)CC1CC1)O2`, for which the relative growth is inactive: 1.01.

On to `C[C@H]1CN([C@@H](C)CO)C(=O)c2cc(NS(=O)(=O)c3ccc(F)cc3)ccc2O[C@H]1CN(C)S(=O)(=O)c1cn(C)cn1`, for which the relative growth was inactive: 0.971.

For `CCS(=O)(=O)Nc1ccc2c(c1)C(=O)N(C)C[C@@H](OC)[C@H](C)CN(Cc1ccccn1)[C@H](C)CO2`, the relative growth is inactive: 0.979.

Take `CN(C)CC(=O)N[C@H]1CC[C@@H](CC(=O)NCCN2CCCCC2)O[C@H]1CO`: the relative growth was inactive: 0.96.

As to `O=C(C[C@H]1CC[C@H]2[C@@H](COC[C@@H](O)CN2S(=O)(=O)c2ccccc2F)O1)NCc1ccccc1F`, the relative growth is inactive: 0.981.

On to `C[C@@H]1CCCCO[C@@H](CN(C)C(=O)c2ccccc2)[C@@H](C)CN([C@H](C)CO)C(=O)c2cc(NC(=O)NC3CCCCC3)ccc2O1`, for which the relative growth was inactive: 1.01.

Regarding `O=C(C[C@H]1CC[C@H]2[C@@H](COC[C@H](O)CN2C(=O)c2ccccc2)O1)NCCCN1CCOCC1`, the relative growth is inactive: 1.02.

Regarding `COc1ccc(S(=O)(=O)Nc2ccc3c(c2)C(=O)N([C@H](C)CO)C[C@H](C)[C@@H](CN(C)S(=O)(=O)c2ccc(F)cc2)O3)cc1`, the relative growth was inactive: 0.996.

As for `O=c1nc(Nc2ccccc2)cn[nH]1`, the relative growth is inactive: 0.97.

For `COc1ccc(S(=O)(=O)N(C)C[C@@H]2OCCCC[C@H](C)Oc3ccc(NS(C)(=O)=O)cc3C(=O)N([C@H](C)CO)C[C@@H]2C)cc1`, the relative growth is inactive: 1.01.

With `C[C@H]1CCCCO[C@H](CN(C)C(=O)Nc2ccccc2)[C@@H](C)CN([C@@H](C)CO)C(=O)c2cc(NC(=O)c3ccncc3)ccc2O1`, the relative growth was inactive: 0.98.

For `CCS(=O)(=O)N1CC[C@]2(CC1)CN(Cc1ccccc1OC)[C@H](CO)c1c2c2ccc(cc2n1C)OC`, the relative growth is inactive: 1.03.

`N[C@H]1CCCC[C@@H]1OCc1ccccc1`: the relative growth was inactive: 0.981.

Consider `COCCOC(=O)N1C(=O)[C@@]2(c3cc(C#CC4(O)CCCCCC4)ccc31)[C@H](c1ccc(OCCO)cc1)N1[C@H](c3ccccc3)[C@H](c3ccccc3)OC(=O)[C@H]1[C@@H]2C(=O)NC[C@H](O)c1ccccc1`, for which the relative growth was inactive: 1.02.

`COc1ccc(NC(=O)N(C)C[C@H]2OCCCC[C@H](C)Oc3ccc(NS(=O)(=O)c4c(C)noc4C)cc3C(=O)N([C@@H](C)CO)C[C@@H]2C)cc1`: the relative growth is inactive: 1.01.

With `CNc1ccccc1C(=O)N1CCc2c([nH]c3ccccc23)C1=O`, the relative growth was inactive: 0.954.

Consider `CC(C)NC(=O)[C@H]1CC[C@@H](n2c(NC(=O)c3ccc(F)cc3)nc3ccc(CN4CCC(C(C)(C)O)CC4)cc32)CC1`, for which the relative growth was inactive: 0.999.

For the compound `COc1ccc(S(=O)(=O)N(C)C[C@H]2OCCCC[C@@H](C)Oc3ccc(NS(=O)(=O)c4ccc(Cl)cc4)cc3C(=O)N([C@H](C)CO)C[C@H]2C)cc1`, the relative growth was inactive: 1.04.

Turning to `CCCNC(=O)c1cc2c(c(-c3cccc(-c4cc5ccccc5o4)c3)n1)[C@@H](CCO)N(C(=O)NC(C)C)C2`, the relative growth was inactive: 1.1.

`CCN(CC)C(C)CN1c2ccccc2Sc2ccccc21.Cl` (stereo not drawn): the relative growth was inactive: 0.804.

Take `COc1ccc(S(=O)(=O)Nc2ccc3c(c2)CC(=O)N([C@H](C)CO)C[C@@H](C)[C@H](CN(C)C(=O)NC(C)C)O3)cc1`: the relative growth is inactive: 0.995.

On to `Cc1ccccc1S(=O)(=O)N1C[C@@H](O)COC[C@@H]2O[C@H](CC(=O)NCc3ccccc3Cl)CC[C@H]21`, for which the relative growth was inactive: 0.995.

For the compound `COc1ccc(S(=O)(=O)Nc2cccc3c2O[C@@H](CN(C)S(=O)(=O)c2ccccc2)[C@H](C)CN([C@H](C)CO)C3=O)cc1`, the relative growth is inactive: 0.951.

Turning to `O=C(C[C@H]1CC[C@H]2[C@@H](COC[C@H](O)CN2CC2CCOCC2)O1)N1CCOCC1`, the relative growth is inactive: 0.993.

As to `O=C1CCC23C=CC(=O)NCCCCNCCCNC(=O)C=Cc4ccc(c2c4)OC3C1` (stereo not drawn), the relative growth was inactive: 1.02.

In the case of `COc1ccc(NC(=O)N(C)C[C@H]2Oc3ccc(NC(=O)Cn4cnnn4)cc3CC(=O)N([C@@H](C)CO)C[C@@H]2C)cc1`, the relative growth was inactive: 0.997.

As for `C[C@H](O)C#Cc1ccc2c(c1)O[C@H](CN(C)C(=O)CN(C)C)[C@H](C)CN([C@H](C)CO)S2(=O)=O`, the relative growth is inactive: 1.

Consider `COc1ccc(C(=O)Nc2ccc3c(c2)C(=O)N(C)[C@H]2CC[C@@H](CC(=O)NCC4CC4)O[C@H]2CO3)cc1`, for which the relative growth is inactive: 0.981.

Regarding `CCNC(=O)N1CCN(CCO)CC1`, the relative growth is inactive: 0.977.

Turning to `C[C@H]([C@H](C)N1CC(=O)NC(=O)C1)N1CC(=O)NC(=O)C1`, the relative growth was inactive: 1.01.

Turning to `Cc1noc(C)c1S(=O)(=O)Nc1ccc2c(c1)CC(=O)N([C@@H](C)CO)C[C@H](C)[C@@H](CN(C)Cc1ccncc1)O2`, the relative growth is inactive: 0.961.

Turning to `C[C@@H]1CN([C@H](C)CO)C(=O)Cc2cc(NC(=O)Nc3ccccc3)ccc2O[C@H]1CN(C)Cc1ccc(-c2ccccc2)cc1`, the relative growth is inactive: 1.03.

For the compound `CN(C)CCCOc1nn(Cc2ccccc2)c2ccccc12.Cl`, the relative growth was inactive: 0.984.

As for `CC(=O)O[C@H]1CC[C@]2(C)[C@H]3CC[C@H]4[C@H]5CC(C)(C)CC[C@]5(C(=O)O)CC[C@@]4(C)[C@]3(C)CC[C@H]2C1(C)C`, the relative growth was inactive: 0.992.

Consider `CN1CCN(CCO)CC1`, for which the relative growth is inactive: 0.999.

For the compound `C[C@@H]1CN([C@@H](C)CO)C(=O)Cc2cc(NC(=O)Nc3ccccc3)ccc2O[C@H]1CN(C)S(=O)(=O)c1cn(C)cn1`, the relative growth is inactive: 1.02.

As to `Cn1c(=O)oc2cc(S(=O)(=O)N3CCC[C@H](C(=O)NN4CCOCC4)C3)ccc21`, the relative growth was inactive: 0.99.

`C[C@@H]1CN([C@H](C)CO)C(=O)c2cccc(NS(=O)(=O)c3ccccc3)c2O[C@@H]1CN(C)S(=O)(=O)c1ccc(F)cc1`: the relative growth is inactive: 0.981.

`C[C@@H]1CN([C@@H](C)CO)C(=O)c2cc(NS(C)(=O)=O)ccc2O[C@@H](C)CCCCO[C@H]1CN(C)C(=O)c1ccncc1`: the relative growth is inactive: 0.845.

For `COC(=O)[C@H]1N=C(c2ccc(OCCCOC(=O)NCCCCCC(=O)NO)cc2)O[C@H]1c1ccccc1`, the relative growth was inactive: 1.03.

`C[C@@H]1CN([C@H](C)CO)C(=O)Cc2cc(NC(=O)NC3CCCCC3)ccc2O[C@H]1CN(C)Cc1ccc(Cl)c(Cl)c1`: the relative growth is inactive: 1.01.

Regarding `O=C(C[C@H]1C=C[C@@H](NS(=O)(=O)c2ccc(F)cc2)[C@H](CO)O1)NCCN1CCCCC1`, the relative growth is inactive: 0.999.

Take `C[C@H]1CN([C@@H](C)CO)C(=O)c2cc(-c3cccc(C#N)c3)cnc2O[C@H]1CN(C)C(=O)C1CCOCC1`: the relative growth is inactive: 1.03.

As for `NC(=O)C[n+]1cccc2ccccc21`, the relative growth is inactive: 0.999.

As for `COc1ccc(S(=O)(=O)Nc2ccc3c(c2)C(=O)N([C@H](C)CO)C[C@@H](C)[C@@H](CN(C)Cc2ccc(C(F)(F)F)cc2)OCCCC[C@@H](C)O3)cc1`, the relative growth was inactive: 1.07.

For the compound `C[C@H](CO)N1C[C@H](C)[C@@H](CN(C)Cc2ccc(Cl)c(Cl)c2)OCCCC[C@H](C)Oc2ccc(NC(=O)Nc3cccc4ccccc34)cc2C1=O`, the relative growth is inactive: 1.04.

Take `C[C@H]1CCCCO[C@H](CN(C)S(=O)(=O)c2cccs2)[C@@H](C)CN([C@@H](C)CO)C(=O)c2cc(NC(=O)Nc3ccc(C(F)(F)F)cc3)ccc2O1`: the relative growth is inactive: 1.03.

Regarding `CCS(=O)(=O)N1CC[C@]2(CC1)CN(CC1CCOCC1)[C@H](CO)c1c2c2ccc(cc2n1C)OC`, the relative growth is inactive: 0.98.

In the case of `COc1ccc(NC(=O)N(C)C[C@H]2OCCCC[C@@H](C)Oc3ccc(NS(=O)(=O)c4cccs4)cc3C(=O)N([C@@H](C)CO)C[C@H]2C)cc1`, the relative growth is inactive: 1.02.

Turning to `CN1CCN(C(=O)C[C@H]2CC[C@@H]3[C@H](COC[C@H](O)CN3S(=O)(=O)c3cccc(F)c3)O2)CC1`, the relative growth was inactive: 0.994.

On to `C[C@H]1CCCCO[C@H](CN(C)S(=O)(=O)c2cn(C)cn2)[C@@H](C)CN([C@@H](C)CO)C(=O)c2cc(N(C)C)ccc2O1`, for which the relative growth is inactive: 0.999.

`C[C@H]1CCCCO[C@@H](CN(C)Cc2ccc(C(F)(F)F)cc2)[C@@H](C)CN([C@@H](C)CO)C(=O)c2cc(N(C)C)ccc2O1`: the relative growth was inactive: 0.972.

For `Cc1cc(=O)[n+]2cccc(O)c2[nH]1`, the relative growth is inactive: 0.959.

As for `CO[C@@H](CN(C)C(=O)Nc1ccc(C(F)(F)F)cc1)[C@H](C)CN(Cc1ccccc1Cl)[C@H](C)CO`, the relative growth is inactive: 1.01.

Consider `CCN1CCN(C(=O)NC(C(=O)NC2C(=O)N3C2SC(C)(C)C3C(=O)[O-])c2ccccc2)C(=O)C1=O.[Na+]` (stereo not drawn), for which the relative growth was active: 0.0465.

In the case of `Cc1ccc(S(=O)(=O)N(C)C[C@@H]2OCCCC[C@@H](C)Oc3ccc(NS(C)(=O)=O)cc3C(=O)N([C@H](C)CO)C[C@H]2C)cc1`, the relative growth was inactive: 0.999.

Take `COC(=O)c1c(CC[C@@H](CO)NC(=O)N[C@@H](Cc2ccccc2)Cn2cc(-c3cncn3C)nn2)oc(C(C)=O)c1C(=O)OC`: the relative growth was inactive: 1.04.
